In a compilation of properties of binary mixtures (doi:10.1016/j.molliq.2016.02.018):
The densities may have been worked out from excess volumes.

Assay: xn = mol fraction of the nth substance listed
Details: 101 kPa

CCCC[n+]1ccn(C)c1.O=S(=O)([N-]S(=O)(=O)C(F)(F)F)C(F)(F)F + CC(=O)[O-].CCCC[n+]1ccn(C)c1
Details	mass density [kg/m3]
283.15 K, x1 = 1	1451

CC(=O)[O-].CCCC[n+]1ccn(C)c1 + CCCC[n+]1ccn(C)c1.O=S(=O)([N-]S(=O)(=O)C(F)(F)F)C(F)(F)F
mass density [kg/m3]
Details	x2 = 0	x2 = 0.1057	x2 = 0.2396	x2 = 0.321	x2 = 0.3662	x2 = 0.5245	x2 = 0.6541	x2 = 0.8097
283.15 K	–	–	1186	–	–	1303	1349	1397
298.15 K	1052	1109	1174	–	1230	1291	1336	–
313.15 K	–	–	1164	–	–	1279	–	–
314.3 K	1068	–	–	1212	–	1285	–	–
333.15 K	1030	–	1150	–	1203	1263	1306	1352
